Assay results published in the supplement of paper PMC4967469.
IC50 is the fitted dose that halves viability relative to control wells, and lower means more sensitive; a fit beyond the top or the lowest dose is shown as a bound at that dose. AUC is the area under the same curve over the 256-fold range up to the top dose, as a fraction; the more sensitive the line, the further below 1. For some assays here: The top dose, if marked as inferred, was calculated from the reported fits.

Columns and labels:
Assay in all cases: Viability of human cancer cell lines after 72 h of drug (GDSC screen)
Erlotinib = compound: C#Cc1cccc(Nc2ncnc3cc(OCCOC)c(OCCOC)cc23)c1 [Erlotinib]; conditions: top dose 2 µM
Experimental: (§1)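 Human cancer cell lines in 384-well plates, medium with 10% serum, drug for 72 h over a 256-fold dose range (nine 2-fold or five 4-fold steps up to the top dose). Adherent lines were fixed and stained with the nucleic acid dye Syto60, suspension lines read with resazurin; signal relative to control wells, capped at 0 and 100%. One two-parameter sigmoid per drug and line, fitted in a mixed model over all curves with the slope shared within a line.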

QL-XI-92 = compound: C=CC(=O)Nc1cc(NC(=O)c2ccc(C)c(NC(=O)c3ccno3)c2)cc(C(F)(F)F)c1 [QL-XI-92]; conditions: top dose 10.24 µM; top dose inferred
Experimental: as §1

Vinorelbine = compound: CCC1=C[C@@H]2CN(C1)Cc1c([nH]c3ccccc13)[C@@](C(=O)OC)(c1cc3c(cc1OC)N(C)[C@H]1[C@@](O)(C(=O)OC)[C@H](OC(C)=O)[C@]4(CC)C=CCN5CC[C@]31[C@@H]54)C2 [Vinorelbine]; conditions: top dose 0.064 µM; top dose inferred
Experimental: as §1

AG-014699 = compound: CNCc1ccc(-c2[nH]c3cc(F)cc4c3c2CCNC4=O)cc1 [AG-014699]; conditions: top dose 5 µM; top dose inferred
Experimental: as §1

XL-184 = compound: COc1cc2nccc(Oc3ccc(NC(=O)C4(C(=O)Nc5ccc(F)cc5)CC4)cc3)c2cc1OC [XL-184]; conditions: top dose 5.12 µM; top dose inferred
Experimental: as §1

WHI-P97 = compound: COc1cc2ncnc(Nc3cc(Br)c(O)c(Br)c3)c2cc1OC [WHI-P97]; conditions: top dose 10.24 µM; top dose inferred
Experimental: as §1

Gefitinib = compound: COc1cc2ncnc(Nc3ccc(F)c(Cl)c3)c2cc1OCCCN1CCOCC1 [Gefitinib]; conditions: top dose 0.5 µM
Experimental: as §1

Phenformin = compound: N=C(N)NC(=N)NCCc1ccccc1 [Phenformin]; conditions: top dose 4000 µM; top dose inferred
Experimental: as §1

S-Trityl-L-cysteine = compound: N[C@@H](CSC(c1ccccc1)(c1ccccc1)c1ccccc1)C(=O)O [S-Trityl-L-cysteine]; conditions: top dose 5.12 µM; top dose inferred
Experimental: as §1

EHT 1864 = compound: O=c1cc(CN2CCOCC2)occ1OCCCCCSc1ccnc2cc(C(F)(F)F)ccc12 [EHT 1864]; conditions: top dose 10 µM; top dose inferred
Experimental: as §1

NU-7441 = compound: O=c1cc(N2CCOCC2)oc2c(-c3cccc4c3sc3ccccc34)cccc12 [NU-7441]; conditions: top dose 2 µM; top dose inferred
Experimental: as §1

Cell Line	AUC (Erlotinib)	IC50 (Erlotinib) [µM]	AUC (QL-XI-92)	IC50 (QL-XI-92) [µM]	AUC (Vinorelbine)	IC50 (Vinorelbine) [µM]	AUC (AG-014699)	IC50 (AG-014699) [µM]	AUC (XL-184)	IC50 (XL-184) [µM]	AUC (WHI-P97)	IC50 (WHI-P97) [µM]	AUC (Gefitinib)	IC50 (Gefitinib) [µM]	AUC (Phenformin)	IC50 (Phenformin) [µM]	AUC (S-Trityl-L-cysteine)	IC50 (S-Trityl-L-cysteine) [µM]	AUC (EHT 1864)	IC50 (EHT 1864) [µM]	AUC (NU-7441)	IC50 (NU-7441) [µM]
CESS (acute myeloid leukaemia, suspension)	0.991	> 2	0.809	4.44	0.561	0.00571	0.99	> 5	0.962	> 5.12	0.935	> 10.2	0.986	> 0.5	0.464	203	0.6	0.577	0.986	> 10	0.984	> 2
CL-11 (large intestine, adherent)	0.987	> 2	0.98	> 10.2	0.981	> 0.064	0.962	> 5	0.987	> 5.12	0.987	> 10.2	0.985	> 0.5	0.954	> 4000	0.971	> 5.12	0.985	> 10	0.896	> 2
CMK (acute myeloid leukaemia, suspension)	0.991	> 2	0.854	6.2	0.71	0.014	0.984	> 5	0.96	> 5.12	0.94	> 10.2	0.974	> 0.5	0.382	125	0.653	0.791	0.933	> 10	0.978	> 2
COLO-668 (small cell lung carcinoma, adherent)	0.949	> 2	0.935	> 10.2	0.802	0.0313	0.989	> 5	0.927	> 5.12	0.989	> 10.2	0.958	> 0.5	0.682	808	0.928	> 5.12	0.951	> 10	0.986	> 2
COR-L88 (small cell lung carcinoma, adherent)	0.98	> 2	0.972	> 10.2	0.778	0.031	0.977	> 5	0.965	> 5.12	0.974	> 10.2	0.963	> 0.5	0.831	3210	0.862	> 5.12	0.938	> 10	0.984	> 2
CTV-1 (acute myeloid leukaemia, suspension)	0.992	> 2	0.883	7.28	0.406	0.00233	0.958	> 5	0.825	2.3	0.971	> 10.2	0.965	> 0.5	0.432	169	0.567	0.469	0.981	> 10	0.97	> 2
D-336MG (glioma, adherent)	0.969	> 2	0.903	> 10.2	0.816	0.0489	0.963	> 5	0.853	> 5.12	0.97	> 10.2	0.965	> 0.5	0.703	1110	0.898	> 5.12	0.938	> 10	0.938	> 2
DG-75 (Burkitt lymphoma, suspension)	0.987	> 2	0.977	> 10.2	0.886	> 0.064	0.928	> 5	0.987	> 5.12	0.982	> 10.2	0.973	> 0.5	0.666	730	0.859	4.35	0.914	> 10	0.861	1.73
DJM-1 (skin, adherent)	0.906	> 2	0.988	> 10.2	0.72	0.0167	0.987	> 5	0.965	> 5.12	0.933	> 10.2	0.974	> 0.5	0.989	> 4000	0.786	2.19	0.98	> 10	0.981	> 2
DMS-79 (small cell lung carcinoma, suspension)	0.947	> 2	0.983	> 10.2	0.953	> 0.064	0.941	> 5	0.981	> 5.12	0.987	> 10.2	0.985	> 0.5	0.823	2880	0.879	> 5.12	0.924	> 10	0.983	> 2
EB2 (Burkitt lymphoma, suspension)	0.987	> 2	0.836	5.91	0.591	0.00694	0.99	> 5	0.83	2.81	0.883	9.13	0.967	> 0.5	0.612	493	0.973	> 5.12	0.976	> 10	0.99	> 2
EB-3 (Burkitt lymphoma, suspension)	0.98	> 2	0.821	7.21	0.895	> 0.064	0.977	> 5	0.897	> 5.12	0.894	> 10.2	0.974	> 0.5	0.549	348	0.889	> 5.12	0.942	> 10	0.984	> 2
EJM (lymphoid neoplasm, semi-adherent)	0.99	> 2	0.976	> 10.2	0.747	0.0177	0.992	> 5	0.967	> 5.12	0.953	> 10.2	0.988	> 0.5	0.569	374	0.921	> 5.12	0.969	> 10	0.981	> 2
EM-2 (chronic myeloid leukaemia, suspension)	0.976	> 2	0.642	1.67	0.781	0.0302	0.982	> 5	0.63	0.768	0.964	> 10.2	0.981	> 0.5	0.763	1620	0.9	> 5.12	0.959	> 10	0.98	> 2
ES8 (Ewing sarcoma, adherent)	0.98	> 2	0.916	> 10.2	0.369	0.00179	0.839	3.07	0.872	4.26	0.938	> 10.2	0.985	> 0.5	0.787	1610	0.59	0.555	0.898	> 10	0.976	> 2
ES-2 (ovary, adherent)	0.987	> 2	0.991	> 10.2	0.975	> 0.064	0.99	> 5	0.879	4.17	0.991	> 10.2	0.991	> 0.5	0.551	339	0.836	2.83	0.985	> 10	0.981	> 2
ETK-1 (biliary tract, adherent)	0.897	> 2	0.938	> 10.2	0.556	0.00582	0.918	> 5	0.914	> 5.12	0.953	> 10.2	0.853	0.474	0.819	2670	0.704	1.31	0.973	> 10	0.958	> 2
EW-11 (Ewing sarcoma, adherent)	0.947	> 2	0.902	> 10.2	0.788	0.0372	0.777	2.63	0.886	> 5.12	0.933	> 10.2	0.933	> 0.5	0.58	441	0.959	> 5.12	0.974	> 10	0.965	> 2
GI-ME-N (neuroblastoma, adherent)	0.947	> 2	0.92	> 10.2	0.542	0.00541	0.873	> 5	0.819	4.38	0.959	> 10.2	0.966	> 0.5	0.592	488	0.743	2.09	0.918	> 10	0.931	> 2
GR-ST (lymphoblastic leukaemia, suspension)	0.981	> 2	0.854	> 10.2	0.581	0.00698	0.904	> 5	0.927	> 5.12	0.917	> 10.2	0.914	> 0.5	0.309	64.4	0.781	2.6	0.85	> 10	0.979	> 2
GRANTA-519 (B-cell lymphoma, suspension)	0.991	> 2	0.946	> 10.2	0.728	0.0164	0.991	> 5	0.991	> 5.12	0.988	> 10.2	0.991	> 0.5	0.733	1060	0.776	1.83	0.987	> 10	0.971	> 2
GT3TKB (stomach, adherent)	0.99	> 2	0.987	> 10.2	0.261	0.00092	0.95	> 5	0.99	> 5.12	0.989	> 10.2	0.987	> 0.5	0.844	2360	0.499	0.319	0.857	6.66	0.929	> 2
HAL-01 (lymphoblastic leukaemia, suspension)	0.981	> 2	0.824	5.17	0.982	> 0.064	0.916	> 5	0.853	3.3	0.947	> 10.2	0.976	> 0.5	0.48	223	0.668	0.884	0.935	> 10	0.816	0.952
